Laboratory results published in a protein production outcome set (Wang et al. 2014).

Test: label from the status in PepcDB records
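Further: failed if final PepcDB status was selected cloned or expressed and not failed if soluble or beyond.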

Q: With “MGDRRFIDFQFQDSNSSLRPRLGNATANNTCIVDDSFKYNLNGAVYSVVFILGLITNSVSLFVFCFRMKMRSETAIFITNLAVSDLLFVCTLPFKIFYNFNRHWPFGDTLCKISGTAFLTNIYGSMLFLTCISVDRFLAIVYPFRSRTIRTRRNSAIVCAGVWILVLSGGISASLFSTTNVNNATTTCFEGFSKRVWKTYLSKITIFIEVVGFIIPLILNVSCSSVVLRTLRKPATLSQVGTNKKKVLKMITVHMAVFVVCFVPYNSVLFLYALVRSQAITNCFLERFAKIMYPITLCLATLNCCFDPFIYYFTLESFQKSFYINAHIRMESLFKTETPLTTKPSLPAIQEEVSDQTTNNGGELMLESTF” as the sequence, how does the protein production read?
A: failed

Q: For “MGPTLAVPTPYGCIGCKLPQPEYPPALIIFMFCAMVITIVVDLIGNSMVILAVTKNKKLRNSGNIFVVSLSVADMLVAIYPYPLMLHAMSIGGWDLSQLQCQMVGFITGLSVVGSIFNIVAIAINRYCYICHSLQYERIFSVRNTCIYLVITWIMTVLAVLPNMYIGTIEYDPRTYTCIFNYLNNPVFTVTIVCIHFVLPLLIVGFCYVRIWTKVLAARDPAGQNPDNQLAEVRNFLTMFVIFLLFAVCWCPINVLTVLVAVSPKEMAGKIPNWLYLAAYFIAYFNSCLNAVIYGLLNENFRREYWTIFHAMRHPIIFFSGLISDIREMQEARTLARARAHARDQAREQDRAHACPAVEETPMNVRNVPLPGDAAAGHPDRASGHPKPHSRSSSAYRKSASTHHKSVFSHSKAASGHLKPVSGHSKPASGHPKSATVYPKPASVHFKADSVHFKGDSVHFKPDSVHFKPASSNPKPITGHHVSAGSHSKSAFSAATSHPKPTTGHIKPATSHAEPTTADYPKPATTSHPKPTAADNPELSASHCPEIPAIAHPVSDDSDLPESASSPAAGPTKPAASQLESDTIADLPDPTVVTTSTNDYHDVVVVDVEDDPDEMAV”, which protein production is on record?
A: failed

Q: Which protein production does the source give for “MINLKCTFAVTAGLCSSLAYAQKQPHIILIMTDQQRGDAMGCMGNESLISPHLDALASEGTLFMNGYSSCPSSTPARAGLLTGQSPWHHGLLGYGKVAPKYNHEMPQMLKDAGYYTFGIGKMHWHPQRIKHGFEGTLLDESGRREDPNFISDYRLWFQIQAPGKNPDETGIGWNDHGAATYKLKESLHPTYWTGEMACQMIQNYDNGNQPLFLKVSFARPHSPYDPPQRFLDMYKDAQVPDPVIGEWCGKYAKELDPEKAAKDAPYGNFGNEYARHSKRYYYANITFIDEQIGRVLQTLKDKGMYDNSLIIFVSDHGDMMGDHYHWRKTYPYEGSTHIPYIIKWPAKAQVVPGKVDNPVELRDLLPTFFEIAGTSVPTDIDGRSLLSLAKGTETEWRKYIDLEHATCYSDDNYWCALTDGKIKYIWYFYTGEEQLFDLAKDPKELHNAVNDKKYKKLLTGMRAEMIRHLSERGEEFVKDGQLVVRKKTMLYGPNYPKEKRLEHHHHHH” here?
A: not failed

Q: Which protein production does the source give for “MNEPQCFYNESIAFFYNRSGKHLATEWNTVSKLVMGLGITVCIFIMLANLLVMVAIYVNRRFHFPIYYLMANLAAADFFAGLAYFYLMFNTGPNTRRLTVSTWLLRQGLIDTSLTASVANLLAIAIERHITVFRMQLHTRMSNRRVVVVIVVIWTMAIVMGAIPSVGWNCICDIENCSNMAPLYSDSYLVFWAIFNLVTFVVMVVLYAHIFGYVRQRTMRMSRHSSGPRRNRDTMMSLLKTVVIVLGAFIICWTPGLVLLLLDVCCPQCDVLAYEKFFLLLAEFNSAMNPIIYSYRDKEMSATFRQILCCQRSENPTGPTEGSDRSASSLNHTILAGVHSNDHSVV” here?
A: failed

Q: Which protein production does the source give for “MSKRSWWAGSRKPPREMLKLSGSDSSQSMNGLEVAPPGLITNFSLATAEQCGQETPLENMLFASFYLLDFILALVGNTLALWLFIRDHKSGTPANVFLMHLAVADLSCVLVLPTRLVYHFSGNHWPFGEIACRLTGFLFYLNMYASIYFLTCISADRFLAIVHPVKSLKLRRPLYAHLACAFLWVVVAVAMAPLLVSPQTVQTNHTVVCLQLYREKASHHALVSLAVAFTFPFITTVTCYLLIIRSLRQGLRVEKRLKTKAVRMIAIVLAIFLVCFVPYHVNRSVYVLHYRSHGASCATQRILALANRITSCLTSLNGALDPIMYFFVAEKFRHALCNLLCGKRLKGPPPSFEGKTNESSLSAKSEL” here?
A: failed
